Measured values from PubChem BioAssay AID1347165 (National Center for Advancing Translational Sciences (NCATS), 2019).
Out of some 220,000 compounds screened, about 5,700 (2.6%) were called active. This list was built around the results that the source calls inconclusive (neither active nor inactive); the mix of calls is not that of the screen. Calls follow the shape of the dose curve; as a rule, active = well fitted inhibition curve with a large enough effect; inconclusive = small, poorly fitted or top-dose-only effect; inactive = no such curve, though single readings can be large or run the other way. Potencies of inconclusive entries are doubtful fits and often do not repeat.

molecular target: Lysine-specific demethylase 5B (Homo sapiens) (UniProt Q9UGL1); assay: Primary screen for KDM5B Histone Demethylases FDH-coupled qHTS; conditions: FDH-coupled NADH fluorescence (FDH is formaldehyde dehydrogenase); series mostly up to 57.7 µM; also: nearly all actives have a fitted effect of over 70% in size
Chain of UniProt Q9UGL1 (Q9UGL1 whole entry, looked up): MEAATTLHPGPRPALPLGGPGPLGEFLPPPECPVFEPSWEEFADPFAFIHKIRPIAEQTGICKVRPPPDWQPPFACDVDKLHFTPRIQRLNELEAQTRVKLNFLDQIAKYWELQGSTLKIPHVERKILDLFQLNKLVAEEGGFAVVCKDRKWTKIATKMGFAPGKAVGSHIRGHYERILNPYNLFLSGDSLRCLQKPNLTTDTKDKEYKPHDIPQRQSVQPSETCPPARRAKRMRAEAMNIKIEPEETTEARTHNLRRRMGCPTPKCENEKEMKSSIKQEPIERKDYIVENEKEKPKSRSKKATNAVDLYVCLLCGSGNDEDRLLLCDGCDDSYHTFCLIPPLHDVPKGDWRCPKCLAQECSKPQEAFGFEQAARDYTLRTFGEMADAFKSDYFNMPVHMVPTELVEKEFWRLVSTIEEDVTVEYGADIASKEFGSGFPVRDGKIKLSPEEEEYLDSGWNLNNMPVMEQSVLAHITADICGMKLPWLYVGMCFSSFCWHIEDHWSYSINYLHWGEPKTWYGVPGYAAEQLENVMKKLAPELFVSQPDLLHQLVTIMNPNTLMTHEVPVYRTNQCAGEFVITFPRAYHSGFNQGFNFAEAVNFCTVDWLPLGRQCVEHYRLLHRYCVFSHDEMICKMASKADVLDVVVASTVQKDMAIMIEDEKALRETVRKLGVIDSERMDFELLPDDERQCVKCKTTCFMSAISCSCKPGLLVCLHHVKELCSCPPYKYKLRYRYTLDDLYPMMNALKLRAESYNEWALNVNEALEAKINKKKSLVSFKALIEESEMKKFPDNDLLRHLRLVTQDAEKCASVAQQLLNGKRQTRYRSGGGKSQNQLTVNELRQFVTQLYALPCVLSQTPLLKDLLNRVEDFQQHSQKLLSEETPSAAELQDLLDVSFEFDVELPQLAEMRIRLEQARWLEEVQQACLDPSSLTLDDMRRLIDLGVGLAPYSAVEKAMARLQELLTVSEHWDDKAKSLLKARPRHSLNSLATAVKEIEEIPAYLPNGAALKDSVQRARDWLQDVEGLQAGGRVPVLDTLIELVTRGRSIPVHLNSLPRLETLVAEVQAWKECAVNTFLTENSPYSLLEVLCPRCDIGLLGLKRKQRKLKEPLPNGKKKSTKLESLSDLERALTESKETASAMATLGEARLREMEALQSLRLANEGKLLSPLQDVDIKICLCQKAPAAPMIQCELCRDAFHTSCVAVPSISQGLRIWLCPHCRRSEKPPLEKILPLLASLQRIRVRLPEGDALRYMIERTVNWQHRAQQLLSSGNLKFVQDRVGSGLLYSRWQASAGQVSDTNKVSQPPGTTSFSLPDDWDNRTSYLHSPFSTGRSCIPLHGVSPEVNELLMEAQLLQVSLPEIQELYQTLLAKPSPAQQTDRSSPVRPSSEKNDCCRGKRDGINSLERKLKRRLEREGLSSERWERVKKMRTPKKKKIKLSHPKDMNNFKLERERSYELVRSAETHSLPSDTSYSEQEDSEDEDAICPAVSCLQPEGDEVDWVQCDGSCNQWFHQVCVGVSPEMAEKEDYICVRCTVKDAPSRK
Procedure, shortened: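 qHTS format, multiple compound concentrations. Buffer 50 mM HEPES pH 7.5/0.01% Tween-20; 200 nM KDM5BΔAP final; 10 min compound preincubation; substrate-mix levels 12.5 µM peptide, 25 µM α-KG, 0.25 mM NAD⁺; 30 min RT; ΔRFU.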
Potency is read from the fitted curve at half-maximal effect; tags tell the direction and shape of the fitted curve.

Compound | Potency
Cn1ncc2c(C(=O)N3CCOCC3)cc(-c3ccc([S+](C)(=O)[O-])cc3)nc21 | inconclusive: 70.8 µM [inhibitor, partial curve]
CSCc1noc(CNC(=O)c2ccc(-c3ccccc3Cl)o2)n1 | active: 31.6 µM
Cc1oc2c(c1C(=O)NCc1ccncc1)CN(Cc1cccc(F)c1)CC2 | inconclusive: 28.2 µM [inhibitor, single point]
Cc1ccc(Cl)cc1NC(=O)COC(=O)c1nn(C)c(=O)c2ccccc12 | inactive
O=C(Cc1ccc(N2CCCC2=O)cc1)N[C@@H](Cc1ccccc1)c1nc2ccccc2[nH]1 | inactive
COCCNC(=O)[C@@H]1CCC[C@@H](NC(=O)C(C)(C)C)CN(C)C(=O)C1 | inactive
Cc1c(-c2ccccc2)[nH]c2c(CNC(=O)CCn3cnnn3)cc(Cl)cc12 | active: 25.1 µM
CCC1CCC(c2nnc(-c3ccc(Br)cc3)o2)CC1 (centres undefined) | inconclusive: 28.2 µM [inhibitor, partial curve, poor fit]
COc1ccc2[nH]c3c(c2c1)CCNC31CCN(C(=O)c2ccc(C)s2)CC1 | inconclusive: 22.4 µM [inhibitor, partial curve, poor fit]
COc1ccc(C(=O)COC(=O)Cc2coc3ccc4ccccc4c23)cc1OC | inconclusive: 39.8 µM [inhibitor, single point]
COc1ccccc1C(=O)Nc1ccc2oc(-c3cccc(F)c3)nc2c1 | inconclusive: 2.82 µM [inhibitor, full curve, poor fit]
Cc1ccc(Nc2c(-c3ccc(C)o3)nc3cccc(C)n23)cc1 | inconclusive: 25.1 µM [inhibitor, partial curve, poor fit]
O=C(O)COCC(=O)N[C@H]1CCN2C(=O)c3cc(-c4ccc(Cl)cc4)ccc3NC(=O)[C@H]12 | inconclusive: 31.6 µM [inhibitor, single point]
Cc1ccc(CNC(=O)c2ccc3c(c2)N(C)C2CCCCCN2C3=O)cc1C (centres undefined) | inconclusive: 25.1 µM [inhibitor, partial curve, poor fit]
CCOc1ccc(NC(=O)Cc2ccccc2)c2cccnc12 | inconclusive: 25.1 µM [inhibitor, single point]
COCCCNC(=O)c1cc(C2CC2)nc2c1c(C1CCCN1)nn2-c1ccccc1 (centres undefined) | inactive
COc1cc(NC(=O)Cc2nc(-c3cccs3)oc2C)cc(OC)c1 | inconclusive: 25.1 µM [inhibitor, partial curve, poor fit]
Cc1ccccc1-c1nccc2c(=O)cc(-c3ccncc3)oc12 | inconclusive: 31.6 µM [inhibitor, single point]
S=C(NC(=NC=C(Cl)Cl)c1ccc(Cl)cc1)Nc1ccc(Cl)cc1 | inconclusive: 15.8 µM [inhibitor, partial curve, poor fit]
COC(=O)c1[nH]c(C)c(/C(O)=C2\C(=O)C(=O)N(CCCn3ccnc3)C2c2cccc(OC)c2)c1C (centres undefined) | inactive
Cc1nc2ccccn2c1C(=O)NC(C)c1cnn(-c2ccccn2)c1C (centres undefined) | inconclusive: 28.2 µM [inhibitor, single point]
Cc1oc2cc(O)ccc2c(=O)c1Oc1ccccc1Br | inconclusive: 15.8 µM [inhibitor, partial curve, poor fit]

Compound | Potency
COc1ccc(-c2cc(N3CCCC(NC(=O)Cc4ccc(OC)c(OC)c4)C3)n[nH]2)cc1 (centres undefined) | inconclusive: 25.1 µM [inhibitor, partial curve]
CCOc1ccc(Nc2ncnc3scc(-c4ccc(OC)cc4)c23)cc1 | inconclusive: 39.8 µM [inhibitor, partial curve, poor fit]
O=C(c1ccoc1)N1CCOc2ccc(CN3CCc4ccccc4C3)cc2C1 | inconclusive: 15.8 µM [inhibitor, partial curve]
C=CCNC(=O)NC(=O)CN(CCOC)CC(=O)Nc1cccc(C)c1C | inactive
COc1cccc(C(=O)N2CCC3(CC2)N=C(c2ccc(Cl)cc2)NO3)c1 | inconclusive: 31.6 µM [inhibitor, partial curve, poor fit]
Cc1cc(C)c2nc(SCC(=O)N(C)C)cc(C)c2c1 | inactive
Cc1cc(C(=O)COC(=O)c2nccnc2N)c(C)n1CCc1ccccc1 | inconclusive: 35.5 µM [inhibitor, single point]
O=S(=O)(Cc1ccccc1F)N1CCCC(CN2CCOCC2)CC1 (centres undefined) | inactive
CC(N)COc1ccccc1C(F)(F)F (centres undefined) | inactive
COc1ccc(CNC(=O)CS(=O)(=O)Cc2nc(-c3ccccc3C)oc2C)cc1 | inactive
COC(=O)[C@H](C)NC(=O)c1ccc(F)cc1-n1cnnn1 | inactive
CCc1ccc(OCC(=O)Nc2cc(-c3nc4cc(C)ccc4o3)ccc2C)cc1 | inactive
COc1ccc(C(C(=O)NCC2CCCO2)N(Cc2ccco2)C(=O)c2snc(C(N)=O)c2N)cc1OC (centres undefined) | inconclusive: 25.1 µM [inhibitor, partial curve, poor fit]
O=Cc1ccccc1-n1ccnc1 | inactive
O=C1c2ccccc2NC2(CCSC2)N1c1ccc2c(c1)OCO2 (centres undefined) | inconclusive: 17.8 µM [inhibitor, partial curve, poor fit]
Cc1ccc2oc(=O)n(Cc3ccccc3Cl)c2c1 | inconclusive: 1.58 µM [inhibitor, partial curve, poor fit]
Cc1ccc(NC(=O)C2CCCC2)cc1C | inactive
Cc1ccc2oc(-c3cc(NC(=O)c4oc5ccccc5c4C)ccc3Cl)nc2c1 | inconclusive: 50.1 µM [inhibitor, single point]
Cc1[nH]nc2c1C(c1ccc(F)cc1)C1=C(COC1=O)N2 (centres undefined) | inconclusive: 20 µM [inhibitor, single point]
NCc1ccc(C(=O)N2CCCC2)cc1 | inactive
Oc1cc(-c2nc3ccccc3s2)cc2c1OCCN(Cc1ncccn1)C2 | inconclusive: 22.4 µM [inhibitor, partial curve, poor fit]
COc1ccc(C2Cn3nnc(-c4noc(-c5ccccc5OC)n4)c3CO2)cc1 (centres undefined) | inconclusive: 35.5 µM [inhibitor, partial curve, poor fit]
